Assay results from EP1042468B1.

Assays:
[1] = biological target: T1, human neuronal calcium channel α1D, α2 and β1 subunits (Homo sapiens, UniProt Q01668); assay: Two-electrode voltage clamp of oöcytes coinjected with α1D, α2 and β1 transcripts; type: cell-based; parameters: expressed in transfected cells; host or cells: Xenopus laevis oöcytes injected with in vitro transcripts (6 ng each)
[2] = tested on: HEK 293 cells (transiently transfected with the lacZ gene expression vector pCMVβgal only); assay: Whole-cell patch clamp of negative control HEK 293 cells; type: cell-based, Human; settings: 1 µM; one cell with discernable current
[3] = biological target: T1, human neuronal calcium channel α1D, α2 and β1 subunits
[4] = biological target: T1, human neuronal calcium channel α1D, α2 and β1 subunits; assay: Whole-cell patch clamp of HEK 293 cells stably transfected with calcium channel subunits; settings: 1 µM

T1 sequence (Q01668 whole entry): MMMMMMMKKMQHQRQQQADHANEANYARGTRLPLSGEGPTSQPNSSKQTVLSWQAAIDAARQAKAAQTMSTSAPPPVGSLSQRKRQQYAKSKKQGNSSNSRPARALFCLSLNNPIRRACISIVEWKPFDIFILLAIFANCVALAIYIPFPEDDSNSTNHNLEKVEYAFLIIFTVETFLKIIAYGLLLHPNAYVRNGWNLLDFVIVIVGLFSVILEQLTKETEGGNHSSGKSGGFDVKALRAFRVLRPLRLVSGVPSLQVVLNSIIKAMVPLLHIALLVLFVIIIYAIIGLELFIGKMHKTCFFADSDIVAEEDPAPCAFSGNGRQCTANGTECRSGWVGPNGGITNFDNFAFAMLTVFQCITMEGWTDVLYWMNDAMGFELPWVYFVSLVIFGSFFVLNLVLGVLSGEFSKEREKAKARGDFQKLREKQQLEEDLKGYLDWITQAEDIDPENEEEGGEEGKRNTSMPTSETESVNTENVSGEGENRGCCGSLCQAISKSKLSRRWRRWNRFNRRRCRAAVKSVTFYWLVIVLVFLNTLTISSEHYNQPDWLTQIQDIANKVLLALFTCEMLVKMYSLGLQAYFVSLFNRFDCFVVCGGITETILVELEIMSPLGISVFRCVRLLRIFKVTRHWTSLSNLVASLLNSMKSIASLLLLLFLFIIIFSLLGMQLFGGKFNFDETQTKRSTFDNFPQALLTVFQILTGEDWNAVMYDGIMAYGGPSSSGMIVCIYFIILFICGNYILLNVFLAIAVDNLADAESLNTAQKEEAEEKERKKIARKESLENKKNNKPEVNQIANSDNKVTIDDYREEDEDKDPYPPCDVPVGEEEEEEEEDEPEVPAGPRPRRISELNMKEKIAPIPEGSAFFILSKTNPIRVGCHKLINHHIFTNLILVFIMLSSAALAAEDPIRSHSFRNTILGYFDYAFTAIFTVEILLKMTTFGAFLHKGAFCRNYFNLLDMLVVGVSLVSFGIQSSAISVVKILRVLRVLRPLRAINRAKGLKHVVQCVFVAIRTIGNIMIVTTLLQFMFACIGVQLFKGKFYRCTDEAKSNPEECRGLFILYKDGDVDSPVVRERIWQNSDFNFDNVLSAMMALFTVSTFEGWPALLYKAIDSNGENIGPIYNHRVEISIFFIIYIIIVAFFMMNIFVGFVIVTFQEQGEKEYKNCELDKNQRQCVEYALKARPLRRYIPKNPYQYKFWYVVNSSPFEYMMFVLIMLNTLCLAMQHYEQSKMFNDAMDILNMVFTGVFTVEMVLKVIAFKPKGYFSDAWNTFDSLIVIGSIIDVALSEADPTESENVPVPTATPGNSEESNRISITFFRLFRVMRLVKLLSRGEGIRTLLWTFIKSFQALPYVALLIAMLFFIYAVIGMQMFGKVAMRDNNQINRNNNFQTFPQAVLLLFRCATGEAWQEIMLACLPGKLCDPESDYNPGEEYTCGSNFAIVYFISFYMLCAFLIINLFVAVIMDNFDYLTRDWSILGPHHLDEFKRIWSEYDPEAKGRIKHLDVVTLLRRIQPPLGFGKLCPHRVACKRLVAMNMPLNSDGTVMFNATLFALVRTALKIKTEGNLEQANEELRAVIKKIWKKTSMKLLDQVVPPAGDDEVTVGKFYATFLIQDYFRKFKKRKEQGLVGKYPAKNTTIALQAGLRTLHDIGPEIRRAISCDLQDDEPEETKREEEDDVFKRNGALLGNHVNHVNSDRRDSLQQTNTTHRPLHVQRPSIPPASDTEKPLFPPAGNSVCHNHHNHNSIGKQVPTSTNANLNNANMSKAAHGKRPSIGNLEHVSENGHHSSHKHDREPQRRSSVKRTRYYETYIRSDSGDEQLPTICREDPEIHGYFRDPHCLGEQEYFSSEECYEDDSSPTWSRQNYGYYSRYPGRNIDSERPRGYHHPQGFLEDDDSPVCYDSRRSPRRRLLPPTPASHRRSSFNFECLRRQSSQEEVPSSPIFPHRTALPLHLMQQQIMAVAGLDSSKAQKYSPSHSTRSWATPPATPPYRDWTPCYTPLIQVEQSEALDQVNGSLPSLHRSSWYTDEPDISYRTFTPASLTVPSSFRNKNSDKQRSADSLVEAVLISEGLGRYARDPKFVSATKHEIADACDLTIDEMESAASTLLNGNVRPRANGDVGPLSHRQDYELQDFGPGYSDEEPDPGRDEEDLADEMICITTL

- effect on currents (in words) ([1]; oöcytes, 40 mM BaCl2 bath): increased the magnitude of the currents
- effect on inward barium current (in words) ([3]; 1 µM, holding potential -90 mV): significantly enhanced
- shift of the entire current-voltage relation [4]: about -10 mV
- current during application ([4]; depolarized to -10 mV from -90 mV, approximately 35pA in the absence): approximately 75 pA
SMILES: COC(=O)C1=C(C)NC(C)=C([N+](=O)[O-])C1c1ccccc1C(F)(F)F (centres unmarked) [Bay K 8644]
- effect on inward barium current of control cell (in words) [2]: not affected

SMILES: [Cd+2] [Cd^2+]
- block of inward barium current (in words) ([1]; 50 µM): blocked completely
- block of inward barium current (in words) ([3]; 200 µM, ~50 pA current, depolarized from -90 mV): nearly completely blocked

SMILES: [Ni+2] [Ni^2+]
- inward barium current blocked ([1]; 100 µM): approximately 15%

Like-named read-outs stand apart in the source and are kept apart here. Each block holds one compound with its values, some of them ahead of it.
